For 42 sequences, binding signal results are on record in publication PMC7819943, “Rice protein-binding microarrays: a tool to detect cis-acting elements near promoter regions in rice”.

The other results are listed elsewhere or left out.

The assay deals with T1, OsWOX13 (Oryza sativa, UniProt Q5QMM3 1-267).
T1 sequence: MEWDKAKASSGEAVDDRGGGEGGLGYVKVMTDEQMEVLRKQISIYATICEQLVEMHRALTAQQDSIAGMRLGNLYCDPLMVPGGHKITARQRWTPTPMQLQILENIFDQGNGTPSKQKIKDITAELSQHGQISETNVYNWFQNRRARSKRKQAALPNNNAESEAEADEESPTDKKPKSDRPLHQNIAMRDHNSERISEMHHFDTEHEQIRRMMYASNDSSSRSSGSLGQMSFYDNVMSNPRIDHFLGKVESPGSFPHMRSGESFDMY
In words: protein-binding microarray (RPBM); PBS, 2% BSA, 51.3 ng/ul salmon testes DNA, 50 uM zinc acetate, 200 nM TF, 25 C, 1 h; high values mean tight binding. The settings on record: protein: recombinant; tags: N-terminal polyhistidine and DsRed monomer fusion (pET32a); label: CyDye5-dUTP incorporated in the synthesized complementary strand; 3' TTTTT single-stranded linker to array surface; dsDNA, one strand shown. The essentials:
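Binding signal here means per-feature fluorescence intensity in arbitrary units. The values were read on an Axon 4000B scanner after a custom Agilent array, double-stranded by primer extension with Cy5-dUTP, was incubated with 200 nM protein at 25 °C for 1 h in PBS with 2% BSA, salmon testes DNA and 50 µM zinc acetate, then washed. The proteins were transcription factors with an N-terminal polyhistidine tag and DsRed, expressed in E. coli BL21-CodonPlus and purified on Ni–NTA.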
Take “ACGAAGTCATCACTGCTACCAATCAAAACCTACAAACAGCCGGAGTCACCTAGTGCAG”: the binding signal is 4780 fluorescence intensity (a.u.).

With “GAGATAAGAAATTATTATCATAATTTATGATGAACGGTTGCGGAGTCACCTAGTGCAG”, the binding signal was 7300 fluorescence intensity (a.u.).

Take “CCCATGATTCCGGGACCAATCACAGCTCGACAGCATACTGCGGAGTCACCTAGTGCAG”: the binding signal is 9810 fluorescence intensity (a.u.).

Take “GTCCATTATACCAAATTACCAACCGCACATAAATTATCCTCGGAGTCACCTAGTGCAG”: the binding signal was 4940 fluorescence intensity (a.u.).

In the case of “AGGAGGCGGGGCGGGGCGGCGGCGGCGGCGGCGGCGCCCGCGGAGTCACCTAGTGCAG”, the binding signal was 5340 fluorescence intensity (a.u.).

“CTAAGTAATTAAAGTTTAGTTATAAGTTTTAGAAGAAGCTCGGAGTCACCTAGTGCAG”: the binding signal is 11300 fluorescence intensity (a.u.).

In the case of “GTACAAATTAGATTGGACCTATATATGAGGGAGCCAATGTCGGAGTCACCTAGTGCAG”, the binding signal was 45700 fluorescence intensity (a.u.).

On to “CTTGATTGGGGTCTCCTTCCTTTTATTAAAAGAAAGCTGACGGAGTCACCTAGTGCAG”, for which the binding signal was 37000 fluorescence intensity (a.u.).

Consider “TGTAATCTTAAATTACTTGCGTAAACAAAAGGATTTAATTCGGAGTCACCTAGTGCAG”, for which the binding signal is 4640 fluorescence intensity (a.u.).

On to “TAAATTAACTTAATCCAATTAGGAGCAGGTACATTGTGTGCGGAGTCACCTAGTGCAG”, for which the binding signal was 31200 fluorescence intensity (a.u.).

On to “AATAATCACAAATGCCAATTGTTCATCACAGAATAAGAATCGGAGTCACCTAGTGCAG”, for which the binding signal is 3270 fluorescence intensity (a.u.).

Regarding “TACTAACTAATTAATGTGATCCTGCCAGCAGTACACGTCCCGGAGTCACCTAGTGCAG”, the binding signal is 35300 fluorescence intensity (a.u.).

As to “TCCACTGATTTAACGGAAAATCAATGCGACTCAAGAGTGTCGGAGTCACCTAGTGCAG”, the binding signal is 31300 fluorescence intensity (a.u.).

As for “ATTGTACACAACAAATTGAAATTTTCAATTCAACTTTTAACGGAGTCACCTAGTGCAG”, the binding signal is 6860 fluorescence intensity (a.u.).

With “ATATATATATATATATATATATATATATATATAAAATCACCGGAGTCACCTAGTGCAG”, the binding signal is 5780 fluorescence intensity (a.u.).

Consider “CAAAATTTGACTCATAAGCTTTAAGCGAAAAGATGAGCCGCGGAGTCACCTAGTGCAG”, for which the binding signal was 4220 fluorescence intensity (a.u.).

Take “GTCGATAAATTATTCGCGGCACAATTATTTGTGCCCCATTCGGAGTCACCTAGTGCAG”: the binding signal is 5580 fluorescence intensity (a.u.).

In the case of “CTTTGACAAAACCTGGAGATTGTGGGACGTTAGCACTGGACGGAGTCACCTAGTGCAG”, the binding signal was 4290 fluorescence intensity (a.u.).

For the sequence “CAGGAAAGCCCATCAATTATATCCATTCTTTAAGCCCAATCGGAGTCACCTAGTGCAG”, the binding signal was 3370 fluorescence intensity (a.u.).

“TAATAACTGAAATTGAACTCTATATTTAAACTTTAACTCTCGGAGTCACCTAGTGCAG”: the binding signal is 18400 fluorescence intensity (a.u.).

Consider “TTAAATTTTAAACAGTTTGATTTTAACTAAAGTTACGTGCCGGAGTCACCTAGTGCAG”, for which the binding signal was 29100 fluorescence intensity (a.u.).

With “ACAAACATGGTTTTGATTGATGTATCTCTTCTAGAGACCACGGAGTCACCTAGTGCAG”, the binding signal is 21600 fluorescence intensity (a.u.).

Consider “CTTTTATTTGATATTTGATTATACAGGTACAAGGCTGGTACGGAGTCACCTAGTGCAG”, for which the binding signal is 16900 fluorescence intensity (a.u.).

For the sequence “ACAATTAAAATCATGTTCGAATTGAGTTTCAATTTCACTTCGGAGTCACCTAGTGCAG”, the binding signal is 6040 fluorescence intensity (a.u.).

For “ATTAATAATTAAAGATTTTAAAGTTTGACCTTACTCTTGTCGGAGTCACCTAGTGCAG”, the binding signal was 15300 fluorescence intensity (a.u.).

Regarding “TAATATAATTATTTCTTACTTTCACAAACTCCGATGTAATCGGAGTCACCTAGTGCAG”, the binding signal was 3480 fluorescence intensity (a.u.).

In the case of “CTGTGTAAACATAATTTATGAATATCATAGTGGACGTCGTCGGAGTCACCTAGTGCAG”, the binding signal was 7050 fluorescence intensity (a.u.).

With “AAATACTCATAATAATTGCTAGTGAATGATGATGTGGCACCGGAGTCACCTAGTGCAG”, the binding signal is 6790 fluorescence intensity (a.u.).

On to “TCGTAACTGAATTTCTCCGGATTGAGTAAGAATAGGAAACCGGAGTCACCTAGTGCAG”, for which the binding signal was 8690 fluorescence intensity (a.u.).

In the case of “ATTTTCCATTTTGAAAATTGACGGAAATAGTCGCCTACCGCGGAGTCACCTAGTGCAG”, the binding signal is 6810 fluorescence intensity (a.u.).

As for “ATCAAAGCAGGATAAATTAGATGATCTTTAATTATGTTCTCGGAGTCACCTAGTGCAG”, the binding signal was 5250 fluorescence intensity (a.u.).

Turning to “ATTGATGTTAATGAATCTAGATATATATATTTATCTAGATCGGAGTCACCTAGTGCAG”, the binding signal was 3470 fluorescence intensity (a.u.).

Consider “CATCACGGAGGAGTTGATTGGCATGCTCTGAAAGTTACTTCGGAGTCACCTAGTGCAG”, for which the binding signal is 30000 fluorescence intensity (a.u.).

“TGGAATTTTGAGTGTGTGATTGCGTTATTACGTTGCAAGTCGGAGTCACCTAGTGCAG”: the binding signal was 3550 fluorescence intensity (a.u.).

Consider “TTGATAGTAAATCAAACATTAATAAAGGCCTGTTCACTTTCGGAGTCACCTAGTGCAG”, for which the binding signal was 8860 fluorescence intensity (a.u.).

For the sequence “AAACTAATTGCTCAGGAGGGATTTAGGGGTAACTCTTAATCGGAGTCACCTAGTGCAG”, the binding signal was 10400 fluorescence intensity (a.u.).

Regarding “AGAAATCACGAACATGAAATTGGACAGACTTCACGGCACTCGGAGTCACCTAGTGCAG”, the binding signal was 8800 fluorescence intensity (a.u.).

With “ATACGCTTCTTAATTTAGTTCCCTCCCATTCCCTTTTACCCGGAGTCACCTAGTGCAG”, the binding signal was 3190 fluorescence intensity (a.u.).

For the sequence “GACATAAACTGGAATAAGTCCACTTGCCTTCCCTCAACTTCGGAGTCACCTAGTGCAG”, the binding signal was 3600 fluorescence intensity (a.u.).

As for “TTAACAGCAACAAATTGTTGGCCAGCCACGTCCCGGGTCCCGGAGTCACCTAGTGCAG”, the binding signal was 7980 fluorescence intensity (a.u.).

“CTTTGTTTCAATAATTTGAATTTGAATTTCAAATTATGACCGGAGTCACCTAGTGCAG”: the binding signal is 15400 fluorescence intensity (a.u.).

In the case of “GTAGATTTGATCGCTGCCTCTTGCGGTTAAATTCTCGGTGCGGAGTCACCTAGTGCAG”, the binding signal was 9220 fluorescence intensity (a.u.).
